The text below walks through data of the supplement of paper PMC4723716.

In this assay the test system is Plasmodium falciparum NF54 stage V gametocytes. Kind of assay: viability index relative to DMSO control (fraction); higher = less gametocyte killing. The following applies: 2.5 µM, incubation time: 72 h. A digest of the protocol:
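Stage V gametocytes of P. falciparum NF54 were held in serum-free screening medium at 0.75% gametocytemia and 1.25% hematocrit, 10 µl per well of a 1,536-well plate, and exposed to compound at 2.5 µM for 72 hr at 37°C under low oxygen. A 3 µl mix of 2.5 µM MitoTracker Red CMXRos with 0.13% saponin was then added for one to two hours, after which one field per well was imaged and red particles of 20–70 µm2 were counted. The viability index equals this count divided by the plate mean from wells given solvent alone.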

Where [1] appears, read: library set: Broad Institute DOS.

The structures appear in SMILES notation. ± gives the uncertainty stated by the source. Over roughly 9,900 compounds, “viability index relative to DMSO control” has its median near 1; the lowest 2% begin near 0.85. The list shows a part of the results.

Turning to `C[C@H]1CN([C@@H](C)CO)C(=O)c2c(c3ccccc3n2C)-c2ccccc2CO[C@H]1CN(C)S(=O)(=O)c1ccc(F)cc1`, the viability index (library set: Broad Institute Blood Stage) amounted to 0.929 ± 0.041.
Turning to `COCC(=O)N1[C@H](C#N)[C@@H](c2ccccc2C2=CCCC2)[C@@H]1CO`, under setting [1], the viability index was determined as 1.15 ± 0.044.
In the case of `COc1ccc2c3c([nH]c2c1)[C@@H](CO)N(C[C@]31CN(C1)S(=O)(=O)c1ccc(C)cc1)C(=O)Nc1ccc(F)cc1`, the viability index under setting [1] came to 1.08 ± 0.16.
Still for that read-out and setting: the same measure for `C[C@@H]1CCCCO[C@@H](CN(C)Cc2ccc3c(c2)OCO3)[C@@H](C)CN([C@@H](C)CO)C(=O)c2cc(NS(=O)(=O)c3cn(C)cn3)ccc2O1`: 1.12 ± 0.047; for `COc1ccc(S(=O)(=O)N2C[C@H](O)COC[C@H]3O[C@H](CC(=O)N[C@H]4CCN(Cc5ccccc5)C4)CC[C@@H]32)cc1`: 1.08 ± 0.067; for `COc1cccc(NC(=O)N2[C@@H](CO)[C@@H](c3ccccc3)[C@@H]2CNCC(C)C)c1`: 0.938 ± 0.026.
The same measure, in the same setting: the same measure for `CO[C@@H]1CN(C)C(=O)c2cc(NC(=O)c3ccc(Oc4ccccc4)cc3)ccc2OC[C@H](C)NC[C@@H]1C`: 1.06 ± 0.037; for `CN1C(=O)c2cc(NC(=O)c3cccc(C(F)(F)F)c3)ccc2OC[C@H]2O[C@@H](CC(=O)NCCN3CCCC3)CC[C@H]21`: 1.04 ± 0.054.
On the same count and under the same terms, with `O=C(C[C@H]1CC[C@H]2NC[C@@H](O)COC[C@@H]2O1)NCc1ccc2c(c1)OCO2` the figure was 1.078 ± 0.0052; with `O=C(Nc1ccc(F)cc1)N1CC(=O)N2[C@H](CO)[C@H](c3ccc(C#Cc4cccnc4)cc3)[C@@H]2C1`, 1.028 ± 0.0039.
As for `CN1CCN(C(=O)C[C@H]2CC[C@@H]3[C@H](COC[C@@H](O)CN3C(=O)c3ccccc3F)O2)CC1`, the viability index under setting [1] was determined as 1.02 ± 0.11.
Under setting [1], `COc1ccccc1C(=O)Nc1ccc2c(c1)C(=O)N(C)[C@H]1CC[C@H](CC(=O)Nc3cccc(C(C)C)c3)O[C@@H]1CO2` displayed a viability index of 1.04 ± 0.1.
Still for that read-out and setting: with `C[C@H]1CN([C@@H](C)CO)C(=O)c2cc(NS(C)(=O)=O)ccc2O[C@@H]1CN(C)C` the figure was 1.05 ± 0.031.
As for `N#C[C@H]1[C@@H](c2ccccc2-c2cccc(F)c2)[C@@H](CO)N1C(=O)C1CC1`, the viability index under setting [1] is 1.06 ± 0.13.
Same read-out and setting: the same measure for `O=C1C[C@H](c2ccccc2)C(=O)N[C@H](c2ccccc2)C/C=C\C[C@H](c2ccccc2)N1`: 1.02 ± 0.018; for `CCCNC(=O)N1CC(=O)N2[C@H](CO)[C@@H](c3ccc(C#CCC4CCCC4)cc3)[C@H]2C1`: 0.971 ± 0.049.
Under setting [1], `CN(C)C(=O)[C@@H]1[C@@H](CO)[C@@H]2Cn3c(cccc3=O)[C@H]1N2CC1CCOCC1` registered a viability index of 1.07 ± 0.064.
The same measure, in the same setting: the same measure for `C[C@@H]1CN([C@H](C)CO)C(=O)CCCn2cc(nn2)CO[C@H]1CN(C)C(=O)c1ccc(N2CCN(C)CC2)cc1`: 1.05 ± 0.054; for `CCCNC(=O)N1CC[C@@H]2[C@@H](CO)N(C)c3ccc(-c4cccc(OC)c4)cc3[C@@H]21`: 1.16 ± 0.047.
The same measure, in the same setting: with `C[C@H](NC(=O)C[C@H]1CC[C@H]2[C@H](COc3ccc(NS(=O)(=O)c4ccc(Cl)cc4)cc3C(=O)N2C)O1)c1ccccc1` the figure was 0.976 ± 0.049.
Same read-out and setting: with `CCCC(=O)N1C[C@@H]2[C@H](c3ccccc31)[C@@H](CO)N2C(=O)Nc1ccc(F)cc1` the figure was 1.02 ± 0.063; with `COc1ccc2c3c([nH]c2c1)[C@H](CO)N(Cc1cccc(F)c1)C[C@]31CCN(CC1)C(C)=O`, 0.989 ± 0.024.
As to `O=C(C[C@H]1CC[C@H](NC(=O)c2ccc(F)cc2)[C@@H](CO)O1)NCCc1ccccc1`, the viability index under setting [1] is 1.09 ± 0.074.
Same read-out and setting: the same measure for `O=C(C[C@H]1C=C[C@H](NC(=O)Cc2ccccn2)[C@@H](CO)O1)NCCc1ccncc1`: 1.008 ± 0.008.
Still for that read-out and setting: the same measure for `Cc1ccc(S(=O)(=O)N2[C@@H]3CNC[C@H]2[C@H]3c2ccc(/C=C/c3ccccc3)cc2)cc1`: 1.07 ± 0.034; for `CCS(=O)(=O)Nc1ccc2c(c1)C(=O)N(C)[C@@H]1CC[C@@H](CC(=O)NC3CCCCC3)O[C@@H]1CO2`: 1.04 ± 0.082.
The same measure, in the same setting: the same measure for `CO[C@H]1CN(C)C(=O)c2cc(NC(=O)Cc3ccccc3)ccc2OC[C@H](C)N(C(=O)c2ccccc2F)C[C@@H]1C`: 1.088 ± 0.0068; for `CN1CCN(C(=O)C[C@H]2CC[C@@H]3[C@H](COC[C@@H](O)CN3C(=O)Nc3ccc4c(c3)OCO4)O2)CC1`: 1.05 ± 0.017; for `COc1ccc2c3c([C@@H](CO)N(C)C[C@]33CCN(CC3)S(=O)(=O)c3cccc(F)c3)n(C)c2c1`: 0.981 ± 0.078.
Turning to `C[C@@H]1CCCCO[C@H](CN(C)C(=O)c2ccncc2)[C@H](C)CN([C@H](C)CO)C(=O)c2cc(NC(=O)CCC(F)(F)F)ccc2O1`, the viability index under setting [1] is 1.04 ± 0.067.
On the same count and under the same terms, with `C[C@@H]1CN([C@@H](C)CO)S(=O)(=O)c2ccc(C#Cc3ccccc3F)cc2O[C@@H]1CN(C)C(=O)Cc1cccnc1` the figure was 0.996 ± 0.011; with `COCC(=O)Nc1ccc2c(c1)C(=O)N(C)[C@@H]1CC[C@H](CC(=O)NC3Cc4ccccc4C3)O[C@@H]1CO2`, 1.1 ± 0.063; with `COc1ccccc1S(=O)(=O)N(C)C[C@H]1OCc2cn(nn2)CCCC(=O)N([C@@H](C)CO)C[C@H]1C`, 1.01 ± 0.027.
The same measure, in the same setting: with `C/C=C/c1ccc2n(c1=O)C[C@H]1[C@H](CO)[C@@H](C(=O)N[C@H](C)c3ccccc3)N(C(=O)c3ccccn3)[C@@H]21.C/C=C\c1ccc2n(c1=O)C[C@H]1[C@H](CO)[C@@H](C(=O)N[C@H](C)c3ccccc3)N(C(=O)c3ccccn3)[C@@H]21` the figure was 1.05 ± 0.085.
